Publication PMC4336329 (PLoS ONE, 2015)
About 14,000 (4.5%) of roughly 310,000 compounds showed an effect of 50% or more. The effect is printed as a negative number. This is one part of the list.

Biological target: human ether-à-go-go-related gene (hERG) potassium channel (human, UniProt Q12809)
Assay: primary screen, population patch clamp on CHO cells stably expressing hERG
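Also: peak tail current of the secondary pulse compared with the same well before compound.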

Chain of human ether-à-go-go-related gene (hERG) potassium channel (Q12809 whole entry, looked up): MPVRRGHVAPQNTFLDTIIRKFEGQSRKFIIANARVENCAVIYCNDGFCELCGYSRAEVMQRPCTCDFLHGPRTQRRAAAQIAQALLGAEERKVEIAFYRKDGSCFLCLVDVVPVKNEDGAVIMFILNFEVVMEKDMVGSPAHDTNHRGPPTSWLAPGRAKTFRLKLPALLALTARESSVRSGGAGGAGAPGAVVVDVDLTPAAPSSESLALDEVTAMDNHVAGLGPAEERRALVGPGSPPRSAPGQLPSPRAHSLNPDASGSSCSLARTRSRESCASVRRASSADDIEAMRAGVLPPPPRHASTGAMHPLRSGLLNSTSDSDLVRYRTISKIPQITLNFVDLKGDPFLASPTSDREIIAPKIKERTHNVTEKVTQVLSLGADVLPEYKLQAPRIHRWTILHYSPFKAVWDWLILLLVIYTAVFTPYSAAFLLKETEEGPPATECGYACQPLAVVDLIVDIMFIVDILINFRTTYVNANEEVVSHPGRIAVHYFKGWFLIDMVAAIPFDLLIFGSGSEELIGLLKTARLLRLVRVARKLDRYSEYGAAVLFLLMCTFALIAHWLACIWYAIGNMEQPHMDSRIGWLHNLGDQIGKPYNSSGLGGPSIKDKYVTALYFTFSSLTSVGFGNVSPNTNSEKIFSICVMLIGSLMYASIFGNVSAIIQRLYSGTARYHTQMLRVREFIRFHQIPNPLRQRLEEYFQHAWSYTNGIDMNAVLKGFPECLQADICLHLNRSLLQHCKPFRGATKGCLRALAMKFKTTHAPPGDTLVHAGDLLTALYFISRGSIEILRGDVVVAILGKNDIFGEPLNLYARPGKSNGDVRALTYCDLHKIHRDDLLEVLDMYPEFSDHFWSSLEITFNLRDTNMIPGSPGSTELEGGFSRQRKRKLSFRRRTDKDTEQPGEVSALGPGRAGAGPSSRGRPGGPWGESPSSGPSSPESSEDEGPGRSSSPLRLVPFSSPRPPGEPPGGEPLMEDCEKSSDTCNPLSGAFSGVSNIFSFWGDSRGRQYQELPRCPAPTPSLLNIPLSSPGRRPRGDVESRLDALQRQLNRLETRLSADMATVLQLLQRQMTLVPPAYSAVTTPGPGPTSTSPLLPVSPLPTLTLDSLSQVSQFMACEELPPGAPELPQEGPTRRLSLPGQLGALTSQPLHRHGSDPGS

Compound	hERG current change (%, negative = inhibition) at 10uM [%]
COCCN1C(=O)N[C@H](c2cccc(C(F)(F)F)c2)C(C(=O)OC)=C1C	-31.7
Cc1ccc(S(=O)(=O)NC2OC(=O)C(Cl)=C2Cl)cc1 (stereo not drawn)	-3.55
CCOC(=O)c1ccc(N=C(CC)c2c(O)n(C)c(=O)n(C)c2=O)cc1	-4.89
Cc1ccc(S(=O)(=O)CCC(=O)Nc2cc(Cl)ccc2-n2cncn2)cc1	-23.6
COc1ccc(-c2nnc(SCC(=O)N3CCOCC3)o2)cc1	-1.92
O=S(=O)(c1ccc(Cl)cc1)N1CCSC1c1ccco1 (stereo not drawn)	-22.5
O=c1cc(-c2ccc(O)cc2)oc2ccc3ccccc3c12	5.27
CCOc1ccc(OCC(=O)OCC(=O)NCC2CCCO2)cc1 (stereo not drawn)	12.2
Fc1cccc(/C=N/NC(=S)Nc2ccccc2Cl)c1	10.6
CCOc1cc(/C=N/O)cc(Br)c1OCc1ccc(Cl)cc1	14.1
O=[N+]([O-])c1ccc(OCc2cn([C@@H](CO)c3ccccc3)nn2)c(Br)c1	-10.3
Clc1ccc(CON/C=N/c2ncnc3sccc23)cc1	18.7
O=C(CCSc1ccccc1)N1CCOCC1	13.3
CN(C)/C=N/S(=O)(=O)c1ccc(Cl)cc1	6.32
Cc1cc2ncn(C(=O)N3CCCC3)c2cc1C	20.9
CCCCC(C(=O)NC(C)(C)C)N(Cc1ccco1)C(=O)c1snc(C(N)=O)c1N (stereo not drawn)	-11.2
CC(C)(C)C1CCC(=NNc2ncc(C(F)(F)F)cc2Cl)CC1 (stereo not drawn)	-2.01
CCN(CC)CC(=O)c1c[nH]c2ccc(C)cc12	-20.3
CCOc1ccccc1-n1c(SCC(=O)NCc2ccco2)nnc1-c1ccncc1	-10.5

Compound	hERG current change (%, negative = inhibition) at 10uM [%]
Cc1ccccc1-c1nnc(SCC(=O)N2CCCC2)o1	14.4
CCN1CCN(c2ccc(S(=O)(=O)N3CCOCC3)cc2NC(=O)c2ccc(C)cc2C)CC1	-30
Cc1ccccc1N(C(=O)CCCC(=O)Nc1ccccn1)C(C(=O)NC1CCCC1)c1ccc(O)cc1 (stereo not drawn)	6.98
CCOC(=O)c1ccc(NC(=O)CC2SC(=NC)N(C)C2=O)cc1 (stereo not drawn)	-0.295
COc1cc(/C=C/C(=O)O)ccc1OCc1ccccc1C#N	4.01
COc1cc2[nH]c(=O)n(CCC(=O)N3CCC(N4CCCCC4)CC3)c(=O)c2cc1OC	21.8
Cn1nc(C(F)(F)F)c(C#N)c1N1CCN(c2ccccc2F)CC1	3.96
CN1CCCC2(CCCN(Cc3nc(Cc4cccc(C(F)(F)F)c4)no3)C2)C1 (stereo not drawn)	-45.2
C=CCn1c(CCC(=O)O)ccc1-c1ccccc1	-3.49
O=C(NCCC1=CCCCC1)C1CCCN(S(=O)(=O)c2cnc[nH]2)C1 (stereo not drawn)	-2.18
CCCCC(CC)COC1(c2ccccc2)OC(=O)c2ccccc21 (stereo not drawn)	6.62
[O-][n+]1onc2c1C(N1CCOCC1)CCC2N1CCOCC1 (stereo not drawn)	-5.56
COc1ccc(C(c2nnnn2C2CCCCC2)N2CCN(c3ccc(OC)cc3)CC2)cc1 (stereo not drawn)	-17
Cc1ccc(-c2ccc(/C=N/NC(=O)Cc3nnc(N)s3)o2)cc1Cl	-2.07
CCOc1ccc(-c2nnc(SCC(=O)Nc3cc(C)on3)o2)cc1	14.1
CCc1ccc(N2CC(C)Cn3c2nc2c3c(=O)[nH]c(=O)n2C)cc1 (stereo not drawn)	-24.8
CCCOc1ccc(C(=O)NNC(=O)CCNC(=O)c2ccco2)cc1OC	13.7
CCc1nnc(NC(=O)C2CC(=O)N(CCc3ccc(F)cc3)C2)s1 (stereo not drawn)	4.54
COc1cc(OC)cc(C(=O)Nc2ccc(N3CCN(C(=O)c4cccs4)CC3)cc2)c1	-12.5

Compound	hERG current change (%, negative = inhibition) at 10uM [%]
COc1ccc(-c2[nH]ncc2-c2cnn(-c3ccccc3)c2)c(O)c1	-16.6
Cc1nc(-c2ccncc2)sc1C(=O)Nc1ccc(Br)cc1	15.9
Cc1cc(C(=O)NNC2CC(=O)N(c3ccc4ccccc4c3)C2=O)c(C)o1 (stereo not drawn)	14.2
O=C(NC1(C(F)(F)F)NC(=O)N(C2CCCC2)C1=O)C1CC1 (stereo not drawn)	4.63
O=C(Cn1nnc(-c2ccc(Cl)cc2)n1)NC1CCS(=O)(=O)C1 (stereo not drawn)	-6.69
CC(C)(C)c1ccc(SCCc2ccncc2)cc1	3.48
Cc1ccnc(N2CCC(C(=O)NNC(=O)c3ccccc3C)CC2)n1	-8.38
CC(C)(C)c1ccc(NC(=S)NCc2cccnc2)cc1	10.4
CC(=O)O.COc1ccc2nccc(/C=C/c3ccnc4ccc(OC)cc34)c2c1	-19.6
CCOC(=O)NC(CC(=O)O)c1ccc(OC)c(OC)c1 (stereo not drawn)	-5.02
O=S(=O)(NCC(c1ccc2c(c1)OCO2)N1CCOCC1)c1ccc(Br)cc1 (stereo not drawn)	-16
Cn1cccc1CC(=O)N/N=C/c1ccc([N+](=O)[O-])cc1	-1.88
CCCc1cc(=O)oc2cc(OCC(=O)NC3CCN(Cc4ccccc4)CC3)ccc12	-60.2
CCNC(=S)NCc1ccc2[nH]c(C)cc2c1	5.06
COc1ccc2nc(N3CCN(C(=O)c4ccc([N+](=O)[O-])o4)CC3)sc2c1	-49.6
CCn1cc(-c2cc(C(F)(F)F)n3nc(C(=O)O)cc3n2)c(C)n1	-8.81
O=C(c1ccc2nc(-c3ccco3)c(-c3ccco3)nc2c1)N1CCN(c2ncccn2)CC1	-67.8
CCOC(=O)c1c(NC(NC(C)=O)C(Cl)(Cl)Cl)sc2c1CCCC2 (stereo not drawn)	-1.73
Cc1cc(/C=C2/SC(=O)N(CC(=O)N3CCCC3)C2=O)ccc1N1CCOCC1	1.24
